The list shows a part of the results.

Assay [1] has as its system HSkMC (human skeletal muscle cells). In words: cytotoxicity call (relative viability < 0.9). The following applies: 10 µM.
The test system of assay [2] is HepG2. In words: cytotoxicity call (relative viability < 0.9). The settings on record: 10 µM.
Assay [3] concerns S. aureus RN4220. In words: growth inhibition call (relative growth <= 0.2). The following applies: 50 µM.

In the case of `C[C@H](CO)N1C[C@H](C)[C@H](CN(C)S(=O)(=O)c2cccs2)OCCCC[C@H](C)Oc2ccc(NS(=O)(=O)c3ccc(Cl)cc3)cc2C1=O`, the cytotoxicity call in assay [1] and in assay [2] was “inactive” each time. In addition, in assay [3], the growth inhibition call was “inactive”.

Turning to `N=C(N)SCCN`, the cytotoxicity call in assay [1] and in assay [2] was “inactive” throughout. The growth inhibition call in assay [3] is “inactive”.

Take `CN1C(=O)c2cc(NC(=O)c3cccs3)ccc2OC[C@H]2O[C@H](CC(=O)NCCN3CCCCC3)CC[C@H]21`: the cytotoxicity call in assay [1] and in assay [2] was “inactive” throughout. In assay [3], the growth inhibition call is “inactive”.

With `CN(C)C(=O)C[C@H]1C=C[C@H](NC(=O)C2CC2)[C@H](CO)O1`, the cytotoxicity call in assay [1] and in assay [2] was “inactive” in each case. Further, the growth inhibition call in assay [3] is “inactive”.

As to `CN(CCOP(=O)(O)O)C(=N)N`, the cytotoxicity call in assay [1] and in assay [2] was “inactive” in each case. Further, the growth inhibition call in assay [3] is “inactive”.

On to `COCCNC(=O)C[C@H]1C[C@@H]2c3cc(NS(C)(=O)=O)ccc3O[C@@H]2[C@@H](CO)O1`, for which the cytotoxicity call in assay [1] and in assay [2] was “inactive” in each case. The growth inhibition call in assay [3] is “inactive”.

`Cc1cc2c(cc1C)CSC(c1ccccc1)SC2`: the cytotoxicity call in assay [1] and in assay [2] was “inactive” in each case. Also, the growth inhibition call in assay [3] was “inactive”.

`CC[C@@]1(C)OC(=O)N(C)C1=O`: the cytotoxicity call in assay [1] and in assay [2] was “inactive” in each case. The growth inhibition call in assay [3] is “inactive”.

For `C[C@H]1CN([C@@H](C)CO)C(=O)c2cc(NC(=O)Nc3cccc4ccccc34)ccc2O[C@H]1CN(C)Cc1ccc(-c2ccccc2)cc1`, the cytotoxicity call in assay [1] and in assay [2] was “inactive” throughout. In assay [3], the growth inhibition call was “inactive”.

For the compound `C[C@H](CO)N1C[C@H](C)[C@H](CN(C)S(C)(=O)=O)Oc2c(NS(=O)(=O)c3ccc(Cl)cc3)cccc2C1=O`, the cytotoxicity call in assay [1] and in assay [2] was “inactive” each time. Moreover, the growth inhibition call in assay [3] was “inactive”.

With `Cc1ccc(S(=O)(=O)Nc2ccc3c(c2)C(=O)N([C@H](C)CO)C[C@H](C)[C@@H](CN(C)S(=O)(=O)c2ccc(C)cc2)OCCCC[C@H](C)O3)cc1`, the cytotoxicity call in assay [1] and in assay [2] was “inactive” each time. Moreover, in assay [3], the growth inhibition call is “inactive”.

Regarding `C[C@@H]1CN([C@H](C)CO)C(=O)c2c(c3ccccc3n2C)-c2ccccc2CO[C@@H]1CN(C)Cc1cccc(C(F)(F)F)c1`, the cytotoxicity call in assay [1] and in assay [2] was “inactive” in each case. In assay [3], the growth inhibition call was “inactive”.

As to `Nc1nnc(CNC(=O)c2ccccc2)[nH]1`, the cytotoxicity call in assay [1] and in assay [2] was “inactive” each time. In addition, the growth inhibition call in assay [3] is “inactive”.

As to `Cc1cc(=O)nc(C)[nH]1`, the cytotoxicity call in assay [1] and in assay [2] was “inactive” in each case. For the same compound, the growth inhibition call in assay [3] is “inactive”.

Regarding `COc1ccccc1N=C(NO)c1nonc1N`, the cytotoxicity call in assay [1] and in assay [2] was “inactive” throughout. Moreover, the growth inhibition call in assay [3] was “inactive”.

As for `C[C@H]1CN([C@@H](C)CO)C(=O)CCCn2cc(nn2)CO[C@@H]1CN(C)C(=O)CCCN(C)C`, the cytotoxicity call in assay [1] and in assay [2] was “inactive” each time. In addition, the growth inhibition call in assay [3] was “inactive”.

With `CO[C@H]1CN(C)C(=O)c2cc(NS(=O)(=O)c3cn(C)cn3)ccc2OC[C@@H](C)N(CCC(F)(F)F)C[C@H]1C`, the cytotoxicity call in assay [1] and in assay [2] was “inactive” each time. In addition, the growth inhibition call in assay [3] is “inactive”.

As for `C[C@H](CO)N1C[C@H](C)[C@H](CN(C)Cc2ccc3c(c2)OCO3)Oc2c(NS(C)(=O)=O)cccc2C1=O`, the cytotoxicity call in assay [1] and in assay [2] was “inactive” in each case. The growth inhibition call in assay [3] is “inactive”.

As for `C[C@@H]1CN([C@H](C)CO)C(=O)c2cc(NC(=O)Nc3ccc(F)cc3)ccc2O[C@H]1CN(C)CC1CCCCC1`, the cytotoxicity call in assay [1] and in assay [2] was “inactive” each time. Besides, in assay [3], the growth inhibition call is “inactive”.

In the case of `C[C@H](CO)N1C[C@H](C)[C@@H](CN(C)CC2CC2)Oc2c(NC(=O)Nc3cccc4ccccc34)cccc2C1=O`, the cytotoxicity call in assay [1] and in assay [2] was “inactive” each time. Further, the growth inhibition call in assay [3] is “inactive”.

For `Cc1ccccc1S(=O)(=O)N1C[C@@H](O)COC[C@@H]2O[C@@H](CC(=O)NCc3ccccc3Cl)CC[C@H]21`, the cytotoxicity call in assay [1] and in assay [2] was “inactive” throughout. The growth inhibition call in assay [3] is “inactive”.

Regarding `COc1ccc(NC(=O)N(C)C[C@@H]2OCCCC[C@H](C)Oc3ccc(NC(=O)Nc4ccc(F)cc4)cc3C(=O)N([C@H](C)CO)C[C@@H]2C)cc1`, the cytotoxicity call in assay [1] and in assay [2] was “inactive” in each case. Besides, the growth inhibition call in assay [3] is “inactive”.

Turning to `Cc1ccc(S(=O)(=O)Nc2ccc3c(c2)C(=O)N([C@H](C)CO)C[C@@H](C)[C@H](CN(C)C(=O)C2CCCCC2)OCCCC[C@@H](C)O3)cc1`, the cytotoxicity call in assay [1] and in assay [2] was “inactive” throughout. For the same compound, the growth inhibition call in assay [3] is “inactive”.

Regarding `C[C@H]1CCCCO[C@@H](CN(C)C(=O)Nc2ccc(C(F)(F)F)cc2)[C@@H](C)CN([C@@H](C)CO)C(=O)c2cc(NC(=O)c3ccccc3)ccc2O1`, the cytotoxicity call in assay [1] and in assay [2] was “inactive” each time. The growth inhibition call in assay [3] was “inactive”.

Regarding `c1ccc(-c2ccc(C(c3ccccc3)n3ccnc3)cc2)cc1` (stereo not given), the cytotoxicity call in assay [1] and in assay [2] was “inactive” throughout. In addition, in assay [3], the growth inhibition call is “inactive”.

Take `Cc1ccc(S(=O)(=O)N(C)C[C@@H]2Oc3c(NC(=O)C4CC4)cccc3C(=O)N([C@H](C)CO)C[C@H]2C)cc1`: the cytotoxicity call in assay [1] and in assay [2] was “inactive” in each case. Also, the growth inhibition call in assay [3] was “inactive”.

`CCOC(=O)c1c[nH]cnc1=O`: the cytotoxicity call in assay [1] and in assay [2] was “inactive” throughout. Moreover, the growth inhibition call in assay [3] is “inactive”.

As for `COc1cc2c(cc1OC)CN(C(=O)[C@@H]1[C@H]3C(=O)O[C@H](c4ccccc4)[C@H](c4ccccc4)N3[C@H](c3ccc(OCCO)cc3)[C@@]13C(=O)Nc1ccccc13)CC2`, the cytotoxicity call in assay [1] and in assay [2] was “inactive” in each case. Further, the growth inhibition call in assay [3] is “inactive”.

For `C[C@@H]1CN([C@H](C)CO)C(=O)Cc2cc(NC(=O)C3CCCCC3)ccc2O[C@@H]1CN(C)Cc1ccc(-c2ccccc2)cc1`, the cytotoxicity call in assay [1] and in assay [2] was “active” throughout. The growth inhibition call in assay [3] is “inactive”.

For `C[C@@H]1CCCCO[C@@H](CN(C)C(=O)NC2CCCCC2)[C@@H](C)CN([C@H](C)CO)C(=O)c2cc(NC(=O)Nc3ccc(C(F)(F)F)cc3)ccc2O1`, the cytotoxicity call in assay [1] and in assay [2] was “active” in each case. Besides, the growth inhibition call in assay [3] is “inactive”.

On to `C[C@@H]1CN([C@@H](C)CO)C(=O)c2cc(NC(=O)c3ccncc3)ccc2O[C@H]1CN(C)Cc1ccc(Oc2ccccc2)cc1`, for which the cytotoxicity call in assay [1] and in assay [2] was “inactive” throughout. The growth inhibition call in assay [3] was “inactive”.

For `C[C@H]1CN([C@@H](C)CO)C(=O)Cc2cc(NC(=O)CCCCCC(=O)Nc3ccccc3N)ccc2O[C@@H]1CN(C)S(=O)(=O)c1cn(C)cn1`, the cytotoxicity call in assay [1] and in assay [2] was “inactive” in each case. Also, the growth inhibition call in assay [3] was “inactive”.

Consider `COc1ccc(S(=O)(=O)N(C)C[C@H]2Oc3c(NC(=O)NC(C)C)cccc3C(=O)N([C@H](C)CO)C[C@@H]2C)cc1`, for which the cytotoxicity call in assay [1] and in assay [2] was “inactive” each time. Besides, in assay [3], the growth inhibition call is “inactive”.

For the compound `COCC(=O)N1[C@@H]2c3ccc(C4=CCCC4)c(=O)n3C[C@@H]2[C@@H](CO)[C@@H]1C(=O)N1CCN(C)CC1`, the cytotoxicity call in assay [1] and in assay [2] was “inactive” each time. In assay [3], the growth inhibition call was “inactive”.

Regarding `COCC(=O)c1ccnn1C`, the cytotoxicity call in assay [1] and in assay [2] was “inactive” throughout. In addition, the growth inhibition call in assay [3] was “inactive”.

Take `C[C@H](CO)N1C[C@H](C)[C@H](CN(C)Cc2ccc(Oc3ccccc3)cc2)Oc2c(NC(=O)CCCCCC(=O)Nc3ccccc3N)cccc2C1=O`: the cytotoxicity call in assay [1] and in assay [2] was “inactive” in each case. Moreover, the growth inhibition call in assay [3] is “inactive”.

Consider `O=C(CCCCCNC(=O)OCCCCO[C@H]1C[C@H]2C(I)=C[C@@H]1C(=O)[C@]21CCCO1)NO`, for which the cytotoxicity call in assay [1] and in assay [2] was “inactive” each time. For the same compound, the growth inhibition call in assay [3] was “inactive”.

With `C[C@@H]1CN([C@H](C)CO)C(=O)c2cc(NS(C)(=O)=O)ccc2O[C@@H](C)CCCCO[C@H]1CN(C)Cc1ccc(Cl)c(Cl)c1`, in assay [1], the cytotoxicity call is “inactive”. Moreover, the cytotoxicity call in assay [2] is “active”. The growth inhibition call in assay [3] is “inactive”.

Take `CCc1c(O)nc2ccccn2c1=O`: the cytotoxicity call in assay [1] and in assay [2] was “inactive” in each case. Moreover, the growth inhibition call in assay [3] was “inactive”.

As to `CC[C@H]1OC(=O)[C@H](C)[C@@H](O[C@H]2C[C@@](C)(OC)[C@@H](O)[C@H](C)O2)[C@@H](C)[C@@H](O[C@H]2O[C@H](C)C[C@H](N(C)C)[C@H]2O)[C@](C)(O)C[C@@H](C)C(=O)[C@H](C)[C@@H](O)[C@]1(C)O`, the cytotoxicity call in assay [1] and in assay [2] was “inactive” throughout. The growth inhibition call in assay [3] is “active”.

These data come from the antibiotic and cytotoxicity screens of Wong et al. (2023).
